Assay results taken from article PMC4336329 (PLoS ONE, 2015).
Among all 310,000 compounds or so, about 2,200 (0.71%) showed an effect of 50% or more. Effects have a minus sign here. Some of the results follow.

What follows are compounds tested against human ether-à-go-go-related gene (hERG) potassium channel (human, UniProt Q12809) (assay: primary screen, population patch clamp on CHO cells stably expressing hERG).
Chain of human ether-à-go-go-related gene (hERG) potassium channel (Q12809 whole entry, looked up): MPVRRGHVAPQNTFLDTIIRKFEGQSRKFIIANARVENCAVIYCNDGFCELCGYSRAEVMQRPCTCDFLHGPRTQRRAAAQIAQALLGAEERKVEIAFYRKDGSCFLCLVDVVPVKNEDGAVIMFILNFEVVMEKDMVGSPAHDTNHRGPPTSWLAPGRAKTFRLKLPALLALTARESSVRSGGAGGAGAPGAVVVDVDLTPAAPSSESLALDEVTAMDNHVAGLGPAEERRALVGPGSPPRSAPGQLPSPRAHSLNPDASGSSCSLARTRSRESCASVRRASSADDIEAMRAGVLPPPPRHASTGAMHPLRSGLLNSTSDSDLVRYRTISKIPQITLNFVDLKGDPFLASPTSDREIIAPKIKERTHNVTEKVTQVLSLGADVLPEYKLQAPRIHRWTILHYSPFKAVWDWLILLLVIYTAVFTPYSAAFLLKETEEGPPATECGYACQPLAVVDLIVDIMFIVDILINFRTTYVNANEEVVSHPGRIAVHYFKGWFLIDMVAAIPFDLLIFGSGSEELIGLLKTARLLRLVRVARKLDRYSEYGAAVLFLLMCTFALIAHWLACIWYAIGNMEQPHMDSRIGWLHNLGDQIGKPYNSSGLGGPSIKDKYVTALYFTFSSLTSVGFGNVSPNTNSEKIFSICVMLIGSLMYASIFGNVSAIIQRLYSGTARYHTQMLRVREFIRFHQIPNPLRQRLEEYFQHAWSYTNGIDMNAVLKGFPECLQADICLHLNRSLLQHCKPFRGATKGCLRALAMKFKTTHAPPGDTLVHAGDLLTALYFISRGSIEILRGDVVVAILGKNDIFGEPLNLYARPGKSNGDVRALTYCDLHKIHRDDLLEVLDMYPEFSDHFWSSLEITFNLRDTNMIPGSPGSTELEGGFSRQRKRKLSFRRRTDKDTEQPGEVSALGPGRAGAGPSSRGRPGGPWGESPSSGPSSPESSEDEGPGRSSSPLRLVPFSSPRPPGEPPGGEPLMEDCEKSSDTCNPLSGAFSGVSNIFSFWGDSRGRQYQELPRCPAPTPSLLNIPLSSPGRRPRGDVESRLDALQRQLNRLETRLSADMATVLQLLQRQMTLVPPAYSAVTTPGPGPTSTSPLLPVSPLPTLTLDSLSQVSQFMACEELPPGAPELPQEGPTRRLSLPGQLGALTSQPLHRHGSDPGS

In order of falling “hERG current change (%, negative = inhibition) at 1uM” value:
1. CC(C)c1ccc(N(CC(=O)Nc2ccc(S(=O)(=O)N3CCOCC3)cc2)S(C)(=O)=O)cc1  21.3%
2. Cc1ccc(Cc2cnc(NC(=O)/C(C#N)=C/c3ccc(-c4ccccc4[N+](=O)[O-])o3)s2)cc1  20.1%
3. C=C1c2cc(CC)ccc2NC(=O)N1c1ccc(C)cc1  18.4%
4. COc1ccc(OCc2nnc(SCC(=O)c3ccccc3)o2)cc1  17.5%
5. Cc1ccc(-n2nc(C(N)=O)nc2-c2ccccc2)cc1  16.6%
6. O=C1C(=O)N2C(=C1C(=O)N1CCCCCC1)c1ccccc1CC21CCCC1  16.2%
7. CCN(CC)c1ccc(N2C(=O)C3CCCCC3C2=O)cc1[N+](=O)[O-] (stereo not shown)  14.9%
8. CCOP(=S)(OCC)Oc1nc(Cl)c(Cl)cc1Cl  14.5%
9. Cn1c(=O)c2ccccc2n(CC(=O)N2CCCc3ccccc32)c1=O  14.3%
10. O=S(=O)(NC1CC1)c1ccccc1  14.3%
11. COc1ccc(Cl)cc1NC(=O)CN(C)C(=O)c1ccc2c(c1)OCCO2  14.3%
12. CN1C(=O)c2ccc(N3CCCC3)cc2C1=O  14.2%
13. COc1ccc(NC(=O)Nc2cccc(F)c2)c(OC)c1  13.8%
14. CCC[N+]1(CC#CC(O)(c2ccccc2)C2CCCCC2)CCCCC1.[Br-] (stereo not shown)  13.8%
15. Cc1ccc(S(=O)(=O)NCC[C@@]2(C)C3CCC2(C)C(=O)C3)cc1 (stereo partly shown)  12.8%
16. CC(=O)N1CCN(C(=O)c2ccc3c(c2)S(=O)(=O)c2ccccc2C3=O)CC1  12.4%
17. COc1ccccc1CCC(=O)Nc1ccc(S(=O)(=O)Nc2cc(C)nc(C)n2)cc1  11.7%
18. CCOc1ccccc1C1C(C#N)=C(N)N(N(C)C)C2=C1C(=O)CCC2 (stereo not shown)  11.5%
19. Cc1ccc(C2(CC(=O)O)CCOC(C)(C)C2)cc1 (stereo not shown)  11.4%
20. Cc1ccc(Cn2c(CCNc3nc(-c4ccc(Cl)c([N+](=O)[O-])c4)cs3)nc3cc(C(=O)NCCCO)ccc32)cc1  11.3%
21. Nc1c(CO)nnn1-c1ccccc1  11%
22. COc1ccc(Nc2ccc([N+](=O)[O-])cn2)cc1  10.8%
23. CN1C(=O)/C(=C\C=C2/CCCN2C)N(C)C1=S  9.99%
24. CCCOC(=O)c1cc2ccccc2oc1=O  9.65%
25. CC(C)(C)c1ccc(C(=O)N2CCC(=O)N(C(COCc3ccccc3)Cc3ccccc3)CC2)cc1 (stereo not shown)  9.25%
26. Cc1cc(O)c(-c2cc(C(=O)Nc3ccc(S(=O)(=O)N4CCOCC4)cc3)[nH]n2)cc1C  8.26%
27. CCSc1nc2sc3c(c2c2nnc(SCC(=O)NCc4ccco4)n12)CCCC3  8.22%
28. O=C(O)c1ccc(COCC(F)(F)F)cc1  7.88%
29. O=C(CCc1nc(-c2ccc(Cl)cc2)no1)NC1CCCC1  6.95%
30. COc1ccc(-c2cn(Cc3ccc4ccccc4c3)nn2)cc1  6%
31. Cc1cccc(C(=O)Nc2nnc(S(=O)(=O)N3CCCCCC3)s2)c1  5.72%
32. O=C(NCCN1CCOCC1)c1cc(-c2ccccc2Cl)nc2ccccc12  4.98%
33. Cc1ccnc(NC(=O)c2cccc(NC(=O)Cc3ccccc3)c2)c1  4.84%
34. CCOC(=O)C1=C(c2ccccc2)NC(SC)=C(C#N)C1c1ccco1 (stereo not shown)  4.4%
35. CN(C)S(=O)(=O)c1cccc(C(=O)N2CCc3ccccc32)c1  4.23%
36. Cn1cc(CN2CC3C[C@@H]4CC2C[C@H](C3)C4)c(-c2ccc3c(c2)OCCO3)n1  3.82%
37. CCCCOC(=O)c1ccc(NC(=O)C2CCCO2)cc1 (stereo not shown)  3.51%
38. COc1ccc(Cn2ccnc2SCC(=O)Nc2ccccc2)cc1  3.43%
39. Cc1cccc(Oc2coc3cc(OC(=O)c4cncc(Br)c4)ccc3c2=O)c1  2.87%
40. COC(=O)c1cc(COc2ccc3c(c2)oc(=O)c2ccccc23)c(C)o1  2.66%
41. COc1cccc(NC(=O)CN(C)C(=O)C2CCN(C(=O)c3ccccc3C)CC2)c1  2.62%
42. COc1ccc(CNc2nc3c(c(=O)n(Cc4ccc(F)cc4)c(=O)n3C)n2C)cc1  2.27%
43. Cc1sc(NC(=O)/C=C/C(=O)O)c(C(N)=O)c1-c1ccc(C(C)(C)C)cc1  2.19%
44. CS(=O)(=O)N(CC(=O)NC1CCCC1)c1ccc2c(c1)OCCO2  -1.03%
45. O=C(COc1cccc(C(F)(F)F)c1)Nc1ccc(S(=O)(=O)N2CCCCC2)cc1  -1.57%
46. COc1ccc(C2Nc3ccccc3NC3=C2C(=O)CC(C)(C)C3)c(OC)c1OC (stereo not shown)  -1.63%
47. O=C(CCCNC(=O)c1ccc(Cl)cc1)Nc1ccc(F)c(S(=O)(=O)N2CCOCC2)c1  -1.65%
48. O=C(C1CCCN(S(=O)(=O)c2ccc(Cl)cc2)C1)N1CCCC1 (stereo not shown)  -1.98%
49. COc1cc2c(cc1OC)-c1c(OC)c(OC)c(OC)c3ccnc(c13)C2=O  -2.02%
50. COC(=O)c1cc(CNC(=O)c2cccc(Cl)c2)ccc1OC  -4.83%
51. CC(C)(C)C(=O)Nc1c2c(nn1-c1cccc(Cl)c1)CS(=O)(=O)C2  -5.4%
52. CCC(C)(C)n1nnnc1C(c1ccc(OC)c(OC)c1)N1CCN(c2ccc(F)cc2)CC1.Cl (stereo not shown)  -5.98%
53. Cc1cc(C(=O)NNC(=S)NCC2CCCO2)cs1 (stereo not shown)  -7.57%
54. COc1ccc(CCNC(=O)C2CC(=O)N(C3CCCCCCC3)C2)cc1OC (stereo not shown)  -9.65%
55. CCOc1cc(-c2sc(Nc3cc(C)ccc3OC)n[n+]2-c2ccccc2)ccc1OC.[Cl-]  -16.5%
